# Experimental data published in the supplement of paper PMC8728848.
# Some of the results follow.
# Assays:
# Assay in all cases: glycan array binding signal (z-score within array); higher = stronger binding
# Settings in all cases: glycan notation: IUPAC condensed, linker removed
# [1] = molecular target: Gal(b1-3)GlcNAc(b1-3)Gal(b1-4)GlcNAc(b1-2)[Gal(b1-3)GlcNAc(b1-3)Gal(b1-4)GlcNAc(b1-6)]Man(a1-6)[Gal(b1-3)GlcNAc(b1-3)Gal(b1-4)GlcNAc(b1-2)Man(a1-3)]Man(b1-4)GlcNAc(b1-4)[Fuc(a1-6)]GlcNAc
# Procedure, shortened: (§1)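 Glycan array data were curated from 3228 arrays in the Consortium for Functional Glycomics database and kept only where the protein sequence was available. Glycan names were converted to IUPAC-condensed notation, and columns mapping to the same glycan were averaged. The binding signal is a within-array Z-score, averaged across arrays of the same protein sequence at different concentrations or buffers and across linkers. Negative Z-scores can be read as non-binding.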
# [2] = molecular target: Gal(b1-3)GlcNAc(b1-3)Gal(b1-4)GlcNAc(b1-3)Gal(b1-4)GlcNAc(b1-2)[Gal(b1-3)GlcNAc(b1-3)Gal(b1-4)GlcNAc(b1-3)Gal(b1-4)GlcNAc(b1-6)]Man(a1-6)[Gal(b1-3)GlcNAc(b1-3)Gal(b1-4)GlcNAc(b1-3)Gal(b1-4)GlcNAc(b1-2)Man(a1-3)]Man(b1-4)GlcNAc(b1-4)[Fuc(a1-6)]GlcNAc
# Procedure, shortened: as §1
# [3] = molecular target: Gal(b1-3)GlcNAc(b1-3)Gal(b1-4)GlcNAc(b1-6)[Gal(b1-3)GlcNAc(b1-3)]Gal(b1-4)Glc
# Procedure, shortened: as §1
# [4] = molecular target: Gal(b1-3)GlcNAc(b1-3)Gal(b1-4)[Fuc(a1-3)]GlcNAc
# Procedure, shortened: as §1
# [5] = molecular target: Gal(b1-3)GlcNAc(b1-3)Gal(b1-4)[Fuc(a1-3)]GlcNAc(b1-6)[Gal(b1-3)GlcNAc(b1-3)]Gal(b1-4)Glc
# Procedure, shortened: as §1
# [6] = molecular target: Gal(b1-3)GlcNAc(b1-3)GalNAc
# Procedure, shortened: as §1
# [7] = molecular target: Gal(b1-3)GlcNAc(b1-6)Gal(b1-4)GlcNAc
# Procedure, shortened: as §1
# [8] = molecular target: Gal(b1-3)GlcNAc(b1-6)GalNAc
# Procedure, shortened: as §1
# [9] = molecular target: Gal(b1-3)GlcNAc(b1-6)[Gal(b1-3)]GalNAc
# Procedure, shortened: as §1
# [10] = molecular target: Gal(b1-3)GlcNAc6S
# Procedure, shortened: as §1
# [11] = molecular target: Gal(b1-3)[Fuc(a1-4)]GlcNAc
# Procedure, shortened: as §1
# [12] = molecular target: Gal(b1-3)[Fuc(a1-4)]GlcNAc(b1-2)Man
# Procedure, shortened: as §1
# [13] = molecular target: Gal(b1-3)[Fuc(a1-4)]GlcNAc(b1-2)Man(a1-3)[Gal(b1-3)[Fuc(a1-4)]GlcNAc(b1-2)Man(a1-6)]Man(b1-4)GlcNAc(b1-4)GlcNAc
# Procedure, shortened: as §1
# [14] = molecular target: Gal(b1-3)[Fuc(a1-4)]GlcNAc(b1-2)Man(a1-3)[Gal(b1-3)[Fuc(a1-4)]GlcNAc(b1-2)Man(a1-6)]Man(b1-4)GlcNAc(b1-4)[Fuc(a1-6)]GlcNAc
# Procedure, shortened: as §1
# [15] = molecular target: Gal(b1-3)[Fuc(a1-4)]GlcNAc(b1-3)Gal(b1-3)[Fuc(a1-4)]GlcNAc
# Procedure, shortened: as §1
# [16] = molecular target: Gal(b1-3)[Fuc(a1-4)]GlcNAc(b1-3)Gal(b1-4)GlcNAc
# Procedure, shortened: as §1
# [17] = molecular target: Gal(b1-3)[Fuc(a1-4)]GlcNAc(b1-3)Gal(b1-4)[Fuc(a1-3)]GlcNAc
# Procedure, shortened: as §1
# [18] = molecular target: Gal(b1-3)[Fuc(a1-4)]GlcNAc(b1-6)GalNAc
# Procedure, shortened: as §1
# [19] = molecular target: Gal(b1-3)[GlcNAc(b1-6)]GalNAc
# Procedure, shortened: as §1
# [20] = molecular target: Gal(b1-3)[Neu5Ac(a2-6)]GalNAc
# Procedure, shortened: as §1
# [21] = molecular target: Gal(b1-3)[Neu5Ac(a2-6)]GlcNAc(b1-4)Gal(b1-4)Glc
# Procedure, shortened: as §1
# [22] = molecular target: Gal(b1-3)[Neu5Ac(a2-6)]GlcNAc(b1-6)Gal(b1-4)Glc
# Procedure, shortened: as §1
# [23] = molecular target: Gal(b1-3)[Neu5Ac(b2-6)]GalNAc
# Procedure, shortened: as §1
# [24] = molecular target: Gal(b1-4)Gal
# Procedure, shortened: as §1
# [25] = molecular target: Gal(b1-4)GalNAc(a1-3)[Fuc(a1-2)]Gal(b1-4)GlcNAc
# Procedure, shortened: as §1
# [26] = molecular target: Gal(b1-4)GalNAc(b1-3)[Fuc(a1-2)]Gal(b1-4)GlcNAc
# Procedure, shortened: as §1
# [27] = molecular target: Gal(b1-4)Glc
# Procedure, shortened: as §1
# [28] = molecular target: Gal(b1-4)Glc6S
# Procedure, shortened: as §1
# [29] = molecular target: Gal(b1-4)GlcNAc
# Procedure, shortened: as §1
# [30] = molecular target: Gal(b1-4)GlcNAc(a1-6)Gal(b1-4)GlcNAc
# Procedure, shortened: as §1
# [31] = molecular target: Gal(b1-4)GlcNAc(b1-2)Man
# Procedure, shortened: as §1
# [32] = molecular target: Gal(b1-4)GlcNAc(b1-2)Man(a1-3)Man(b1-4)GlcNAc(b1-4)GlcNAc
# Procedure, shortened: as §1
# [33] = molecular target: Gal(b1-4)GlcNAc(b1-2)Man(a1-3)[Gal(b1-4)GlcNAc(b1-2)Man(a1-6)]Man(b1-4)GlcNAc(b1-4)GlcNAc
# Procedure, shortened: as §1
# [34] = molecular target: Gal(b1-4)GlcNAc(b1-2)Man(a1-3)[Gal(b1-4)GlcNAc(b1-2)Man(a1-6)]Man(b1-4)GlcNAc(b1-4)[Fuc(a1-6)]GlcNAc
# Procedure, shortened: as §1
# [35] = molecular target: Gal(b1-4)GlcNAc(b1-2)Man(a1-3)[Gal(b1-4)GlcNAc(b1-2)Man(a1-6)][Gal(b1-4)GlcNAc(b1-4)]Man(b1-4)GlcNAc(b1-4)[Fuc(a1-6)]GlcNAc
# Procedure, shortened: as §1
# [36] = molecular target: Gal(b1-4)GlcNAc(b1-2)Man(a1-3)[Gal(b1-4)GlcNAc(b1-2)Man(a1-6)][GlcNAc(b1-4)]Man(b1-4)GlcNAc(b1-4)[Fuc(a1-6)]GlcNAc
# Procedure, shortened: as §1
# [37] = molecular target: Gal(b1-4)GlcNAc(b1-2)Man(a1-3)[GlcNAc(b1-2)Man(a1-6)]Man(b1-4)GlcNAc(b1-4)GlcNAc
# Procedure, shortened: as §1
# [38] = molecular target: Gal(b1-4)GlcNAc(b1-2)Man(a1-3)[GlcNAc(b1-4)][Gal(b1-4)GlcNAc(b1-2)Man(a1-6)]Man(b1-4)GlcNAc(b1-4)GlcNAc
# Procedure, shortened: as §1
# [39] = molecular target: Gal(b1-4)GlcNAc(b1-2)Man(a1-3)[Man(a1-6)]Man(b1-4)GlcNAc(b1-4)GlcNAc
# Procedure, shortened: as §1
# [40] = molecular target: Gal(b1-4)GlcNAc(b1-2)Man(a1-6)Man(b1-4)GlcNAc(b1-4)GlcNAc
# Procedure, shortened: as §1
# [41] = molecular target: Gal(b1-4)GlcNAc(b1-2)Man(a1-6)[GlcNAc(b1-2)Man(a1-3)]Man(b1-4)GlcNAc(b1-4)GlcNAc
# Procedure, shortened: as §1
# [42] = molecular target: Gal(b1-4)GlcNAc(b1-2)Man(a1-6)[Man(a1-3)]Man(b1-4)GlcNAc(b1-4)GlcNAc
# Procedure, shortened: as §1
# [43] = molecular target: Gal(b1-4)GlcNAc(b1-2)[Gal(b1-4)GlcNAc(b1-4)]Man(a1-3)[Gal(b1-4)GlcNAc(b1-2)Man(a1-6)]Man(b1-4)GlcNAc(b1-4)GlcNAc
# Procedure, shortened: as §1
# [44] = molecular target: Gal(b1-4)GlcNAc(b1-2)[Gal(b1-4)GlcNAc(b1-4)]Man(a1-3)[Gal(b1-4)GlcNAc(b1-2)[Gal(b1-4)GlcNAc(b1-6)]Man(a1-6)]Man(b1-4)GlcNAc(b1-4)GlcNAc
# Procedure, shortened: as §1
# [45] = molecular target: Gal(b1-4)GlcNAc(b1-2)[Gal(b1-4)GlcNAc(b1-4)]Man(a1-3)[GlcNAc(b1-4)][Gal(b1-4)GlcNAc(b1-2)Man(a1-6)]Man(b1-4)GlcNAc(b1-4)GlcNAc
# Procedure, shortened: as §1
binder,measurement,setting,value
"AAL (Agrocybe aegerita), Q6WY08 (protein) MQGVNIYNISAGTSVDLAAPVTTGDIVTFFSSALNLNAGAGNPNNTTLNLFAENGAYLLHIAFRLQENVIIFNSRQPDGPWLVEQRVSDVANQFAGIDGKAMVTVFDHGDKYQVVINEKTVIQYTKQISGLTLSLSYNATEETSIFSTVVEAVTYTGLALEHHHHHH",glycan array binding signal (z-score),[1],-0.08
same,glycan array binding signal (z-score),[2],-0.097
same,glycan array binding signal (z-score),[3],-0.153
same,glycan array binding signal (z-score),[4],-0.166
same,glycan array binding signal (z-score),[5],-0.134
same,glycan array binding signal (z-score),[6],-0.149
same,glycan array binding signal (z-score),[7],-0.152
same,glycan array binding signal (z-score),[8],-0.164
same,glycan array binding signal (z-score),[9],-0.098
same,glycan array binding signal (z-score),[10],-0.129
same,glycan array binding signal (z-score),[11],-0.152
same,glycan array binding signal (z-score),[12],-0.11
same,glycan array binding signal (z-score),[13],-0.107
same,glycan array binding signal (z-score),[14],-0.111
same,glycan array binding signal (z-score),[15],-0.134
same,glycan array binding signal (z-score),[16],-0.133
same,glycan array binding signal (z-score),[17],-0.151
same,glycan array binding signal (z-score),[18],-0.141
same,glycan array binding signal (z-score),[19],-0.15
same,glycan array binding signal (z-score),[20],-0.159
same,glycan array binding signal (z-score),[21],-0.132
same,glycan array binding signal (z-score),[22],-0.161
same,glycan array binding signal (z-score),[23],-0.155
same,glycan array binding signal (z-score),[24],-0.108
same,glycan array binding signal (z-score),[25],-0.146
same,glycan array binding signal (z-score),[26],-0.135
same,glycan array binding signal (z-score),[27],-0.138
same,glycan array binding signal (z-score),[28],-0.136
same,glycan array binding signal (z-score),[29],-0.15
same,glycan array binding signal (z-score),[30],-0.149
same,glycan array binding signal (z-score),[31],-0.108
same,glycan array binding signal (z-score),[32],-0.142
same,glycan array binding signal (z-score),[33],-0.07
same,glycan array binding signal (z-score),[34],-0.104
same,glycan array binding signal (z-score),[35],-0.114
same,glycan array binding signal (z-score),[36],-0.138
same,glycan array binding signal (z-score),[37],-0.148
same,glycan array binding signal (z-score),[38],-0.13
same,glycan array binding signal (z-score),[39],-0.148
same,glycan array binding signal (z-score),[40],-0.162
same,glycan array binding signal (z-score),[41],-0.145
same,glycan array binding signal (z-score),[42],-0.149
same,glycan array binding signal (z-score),[43],-0.109
same,glycan array binding signal (z-score),[44],-0.09
same,glycan array binding signal (z-score),[45],-0.107
